In patent US20030235860A1 (published 2003):

Molecular target: T1, estrogen receptor (ER), full-length (human, UniProt P03372 1-595)
T1 construct: 35S-labeled when in vitro translated for the pull-downs; endogenous in MCF7 cells for the co-immunoprecipitation; also called ERα; pSG5-ER
T1 sequence: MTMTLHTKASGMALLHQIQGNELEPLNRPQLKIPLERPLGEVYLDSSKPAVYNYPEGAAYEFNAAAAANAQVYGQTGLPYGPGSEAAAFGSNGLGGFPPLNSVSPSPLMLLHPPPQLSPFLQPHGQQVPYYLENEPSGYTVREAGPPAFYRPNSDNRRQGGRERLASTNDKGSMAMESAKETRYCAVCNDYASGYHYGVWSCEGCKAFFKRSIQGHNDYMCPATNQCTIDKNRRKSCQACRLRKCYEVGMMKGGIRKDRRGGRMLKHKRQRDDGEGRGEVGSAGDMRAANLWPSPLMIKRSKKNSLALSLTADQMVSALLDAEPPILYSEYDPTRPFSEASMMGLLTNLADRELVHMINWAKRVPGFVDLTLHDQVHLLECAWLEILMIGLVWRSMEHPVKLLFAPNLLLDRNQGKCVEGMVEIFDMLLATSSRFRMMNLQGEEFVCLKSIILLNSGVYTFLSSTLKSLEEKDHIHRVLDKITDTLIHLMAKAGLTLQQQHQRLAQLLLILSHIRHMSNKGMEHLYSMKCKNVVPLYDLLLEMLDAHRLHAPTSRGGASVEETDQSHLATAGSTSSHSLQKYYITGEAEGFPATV
Test: GST pull-down in the absence of E2

B1: GST control protein (other)
chain: not shown
notes: Control protein on glutathione-Sepharose beads; also called GST alone
B1: no binding.
